The values below come from patent EP4707380A1, “LACTOBACILLUS MALI STRAIN AND USES THEREOF” (CJ Cheiljedang Corporation, priority 2023, dated 2024).

In series [1] the test system is Lactobacillus mali DSM20444 crude enzyme solution. Kind of series: Transglycosylation of steviol glycosides by crude enzyme solution (HPLC). The following applies: steviol glycoside and sucrose 10% each, pH 5.0, 40°C, 24 hours.
Series [2] has as its system Lactobacillus mali CJST01 crude enzyme solution. Described as above. It counts as biochemical. Conditions: steviol glycoside and sucrose 10% each, pH 5.0, 40°C, 24 hours. Here is the method:
Specifically, 12 kinds of steviol glycosides (stevioside, rebaudioside A, B, C, D, E, F, M, N, dulcoside A, steviolbioside, rubusoside) and sucrose (CJ CheilJedang) were added to 50 µM sodium acetate buffer (pH 5.0) by 10% each, and the crude enzyme solution of the Lactobacillus mali 2 kinds of strains prepared in Example 3 was added and reacted at 40°C for 24 hours. […]

Series [3] in a line: Solubility in distilled water. The following applies: incubated 4 days.
A short description of series [4]: Paired Comparison Test: concentration corresponding to the same sweetness level. The following applies: concentration (w/w) in drinking purified water at the same sweetness level, based on the RM concentration; 100 consumers. Here is the method: Specifically, the present evaluation was performed by descriptive analysis by recruiting professional sensory panels, and in advance, the concentration corresponding to the same sweetness level was calculated for 100 sweetness-sensitive female consumers between ages of 19 and 40. Then, the consumers were asked to select the closest concentration by phasing the CJ and A14 sample concentrations into quintiles based on the RM concentration. The manufacturing method was to prepare the corresponding substance in a state that drinking was possible by dissolving it in drinking purified water at a set concentration (w/w), and the samples were provided into the consumer panels by 10 mL each in a transparent plastic cup, and two samples were randomly assigned to select the sample felt sweeter, and based on this, the sample in which statistical equivalence occurred among overall differences between the samples was calculated as the sample concentration for final descriptive analysis.

The nature of another series: physchem. Conditions: distilled water, thermodynamic from solid.

In brackets after ≈: the same amount, converted by molar mass.

On to `C=C1C[C@@]23CC[C@H]4[C@@](C)(CCC[C@@]4(C)C(=O)O[C@@H]4O[C@H](CO)[C@@H](O)[C@H](O)[C@H]4O)[C@@H]2CC[C@]1(O[C@@H]1O[C@H](CO)[C@@H](O)[C@H](O)[C@H]1O[C@@H]1O[C@@H](C)[C@H](O)[C@@H](O)[C@H]1O)C3` [Dulcoside A], for which the “production of the transglycosylated steviol glycoside, DSM20444” value (shortened to “production … DSM20444”) in series [1] is reported as “○”. For the same compound, the “production of the transglycosylated steviol glycoside, CJST01” value (“production … CJST01” for short) is on record as “○” in series [2] and “had the transglycosylation activity” in series [2] (listed as dulcoside A).

As a reminder, the Solubility is the dissolved amount per volume that the medium holds. Read a high Solubility as much dissolved substance. Take `C=C1C[C@@]23CC[C@H]4[C@@](C)(CCC[C@@]4(C)C(=O)O[C@@H]4O[C@H](CO)[C@@H](O)[C@H](O)[C@H]4O)[C@@H]2CC[C@]1(O[C@@H]1O[C@H](CO)[C@@H](O)[C@H](O[C@@H]2O[C@H](CO)[C@@H](O)[C@H](O)[C@H]2O)[C@H]1O[C@@H]1O[C@H](CO)[C@@H](O)[C@H](O)[C@H]1O)C3` [Rebaudioside A, rebaudioside A]: the “production … DSM20444” value in series [1] was “○”. For the same compound, the Solubility in series [3] (10 °C) came out at 5 mg/mL (≈ 5.17 mM); in series [3] (25 °C), 5 mg/mL (≈ 5.17 mM); in series [3] (40 °C), 6 mg/mL (≈ 6.2 mM); in series [3] (55 °C) it was 12 mg/mL (≈ 12.4 mM). Also, the “production … CJST01” value in series [2] is “○”; in series [2] (listed as rebaudioside A), “had the transglycosylation activity”.

With `C=C1C[C@@]23CC[C@H]4[C@@](C)(CCC[C@@]4(C)C(=O)O[C@@H]4O[C@H](CO)[C@@H](O)[C@H](O)[C@H]4O[C@@H]4O[C@H](CO)[C@@H](O)[C@H](O)[C@H]4O)[C@@H]2CC[C@]1(O[C@@H]1O[C@H](CO)[C@@H](O)[C@H](O[C@@H]2O[C@H](CO)[C@@H](O)[C@H](O)[C@H]2O)[C@H]1O[C@@H]1O[C@H](CO)[C@@H](O)[C@H](O)[C@H]1O)C3` [Rebaudioside D, rebaudioside D], the Solubility in series [3] (10 °C) was determined as 4 mg/mL (≈ 3.54 mM); in series [3] (25 °C) it was 1 mg/mL (≈ 0.886 mM); in series [3] (40 °C), 1 mg/mL (≈ 0.886 mM); in series [3] (55 °C), 2 mg/mL (≈ 1.77 mM).

For the compound `C=C1C[C@@]23CC[C@H]4[C@@](C)(CCC[C@@]4(C)C(=O)O[C@@H]4O[C@H](CO)[C@@H](O)[C@H](O[C@@H]5O[C@H](CO)[C@@H](O)[C@H](O)[C@H]5O)[C@H]4O[C@@H]4O[C@H](CO)[C@@H](O)[C@H](O)[C@H]4O)[C@@H]2CC[C@]1(O[C@@H]1O[C@H](CO)[C@@H](O)[C@H](O[C@@H]2O[C@H](CO)[C@@H](O)[C@H](O)[C@H]2O)[C@H]1O[C@@H]1O[C@H](CO)[C@@H](O)[C@H](O)[C@H]1O)C3` [Rebaudioside M, rebaudioside M], the Calculated concentration in series [4] is reported as 0.0696%.

On to `C=C1C[C@@]23CC[C@H]4[C@@](C)(CCC[C@@]4(C)C(=O)O[C@@H]4O[C@H](CO)[C@@H](O)[C@H](O)[C@H]4O)[C@@H]2CC[C@]1(O[C@@H]1O[C@H](CO)[C@@H](O)[C@H](O)[C@H]1O)C3` [Rubusoside], for which the “production … CJST01” value is reported as “○” in series [2] and “had the transglycosylation activity” in series [2] (listed as rubusoside).

With `C=C1C[C@@]23CC[C@H]4[C@@](C)(CCC[C@@]4(C)C(=O)O)[C@@H]2CC[C@]1(O[C@@H]1O[C@H](CO)[C@@H](O)[C@H](O)[C@H]1O[C@@H]1O[C@H](CO)[C@@H](O)[C@H](O)[C@H]1O)C3` [Steviolbioside], the figures for the “production … CJST01” value in series [2] and in series [2] (listed as steviolbioside) were “○” and “had the transglycosylation activity”, respectively.

In general, solubility refers to the dissolved amount per volume that the medium holds. On to `C=C1C[C@@]23CC[C@H]4[C@@](C)(CCC[C@@]4(C)C(=O)O[C@@H]4O[C@H](CO)[C@@H](O)[C@H](O)[C@H]4O)[C@@H]2CC[C@]1(O[C@@H]1O[C@H](CO)[C@@H](O)[C@H](O)[C@H]1O[C@@H]1O[C@H](CO)[C@@H](O)[C@H](O)[C@H]1O)C3` [Stevioside, stevioside], for which the “production … DSM20444” value in series [1] was “○”. Also, the “production … CJST01” value in series [2] is on record as “○”; in series [2] (listed as stevioside), “had the transglycosylation activity”. The solubility at 4 days in “physchem” (10 °C) was 12 mg/mL (≈ 14.9 mM); in the series “physchem” (25 °C), 21 mg/mL (≈ 26.1 mM); in the series “physchem” (40 °C), 37 mg/mL (≈ 46 mM); in “physchem” (55 °C), greater than 160 mg/mL.

Turning to Rebaudioside C, the “production … DSM20444” value in series [1] is on record as “○”. Besides, in series [2], the “production … CJST01” value was “○”.

Regarding Rebaudioside F, the “production … DSM20444” value in series [1] is “○”. Further, in series [2], the “production … CJST01” value was “○”.
